B1: CCCCAGU (DNA:RNA)
RNA: GGGAGACCGGAAUUCAGAUUGUCCCCCCAGUUUAAAUCCCGUCGUAGCCACCA
DNA 1: CAATCTGAATTCCGGTCTCCC
DNA 2: TGGTGGCTACGACGGGATT
B2: ACGCCUG (DNA:RNA)
RNA: B1 RNA with C25A, C27G, A29C, G30U, U31G
DNA 1: CAATCTGAATTCCGGTCTCCC
DNA 2: TGGTGGCTACGACGGGATT
B3: UCUAAGA (DNA:RNA)
RNA: B1 RNA with C25U, C27U, C28A, U31A
DNA 1: CAATCTGAATTCCGGTCTCCC
DNA 2: TGGTGGCTACGACGGGATT
B4: AGACCUC (DNA:RNA)
RNA: B1 RNA with C25A, C26G, C27A, A29C, G30U, U31C
DNA 1: CAATCTGAATTCCGGTCTCCC
DNA 2: TGGTGGCTACGACGGGATT
B5: AUAUCUA (DNA:RNA)
RNA: GGGAGACCGGAAUUCAGAUUGUCCAUAUCUAUUAAAUCCCGUCGUAGCCACCA
DNA 1: CAATCTGAATTCCGGTCTCCC
DNA 2: TGGTGGCTACGACGGGATT
B6: CUGCGGU (DNA:RNA)
RNA: B1 RNA with C26U, C27G, A29G
DNA 1: CAATCTGAATTCCGGTCTCCC
DNA 2: TGGTGGCTACGACGGGATT
B7: CUCAGGG (DNA:RNA)
RNA: B1 RNA with C26U, C28A, A29G, U31G
DNA 1: CAATCTGAATTCCGGTCTCCC
DNA 2: TGGTGGCTACGACGGGATT
B8: CCGUAUC (DNA:RNA)
RNA: B1 RNA with C27G, C28U, G30U, U31C
DNA 1: CAATCTGAATTCCGGTCTCCC
DNA 2: TGGTGGCTACGACGGGATT
B9: UGAGUUA (DNA:RNA)
RNA: B5 RNA with A25U, U26G, U28G, C29U
DNA 1: CAATCTGAATTCCGGTCTCCC
DNA 2: TGGTGGCTACGACGGGATT

Changes are numbered by the printed parent chain; changes in the protein carry UniProt numbers. The list shows a part of the results.

The target in this assay is T1, RBFOX1 RRM RbFoxmut (Fox-RRM*) (Homo sapiens, UniProt Q9NWB1 109-208, R118D;E147R;N151S;E152T).
T1 sequence: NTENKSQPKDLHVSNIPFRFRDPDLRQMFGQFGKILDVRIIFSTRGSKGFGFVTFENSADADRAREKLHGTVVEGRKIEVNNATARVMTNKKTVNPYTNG
Nature of the assay: EMSA; HiTS-Eq, 1 nM pool, 10 min; buffer printed only for the single-RNA assays: 10 mM Tris pH 7.5, 150 mM NaCl, 3.4 mM EDTA, 0.001% NP-40, 30 C. To be noted: tags: His6 N-terminal (pET28a); label: 5' 32P. Put shortly: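 Purified wild-type or mutant RbFox RRM at increasing concentrations was equilibrated with 1 nM of 5′-radiolabelled RNA carrying 7 randomized nucleotides for 10 min in 50 µL. Unbound RNA was separated by 8% native PAGE and sequenced. Relative association constants came from read-count changes of each RNA species compared with the control reaction, normalised to the cognate motif.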
Regarding B1, the binding signal is 0.0863 KA relative to UGCAUGU.

Consider B2, for which the binding signal was 0.124 KA relative to UGCAUGU.

For B3, the binding signal is 0.0938 KA relative to UGCAUGU.

Regarding B4, the binding signal is 0.0625 KA relative to UGCAUGU.

Regarding B5, the binding signal is 0.124 KA relative to UGCAUGU.

Regarding B6, the binding signal is 0.127 KA relative to UGCAUGU.

In the case of B7, the binding signal is 0.0739 KA relative to UGCAUGU.

As for B8, the binding signal was 0.163 KA relative to UGCAUGU.

As to B9, the binding signal was 0.102 KA relative to UGCAUGU.

(Values after PMC9911399, “Two distinct binding modes provide the RNA-binding protein RbFox with extraordinary sequence specificity”.)
